Experimental data reported in PubChem BioAssay AID485290 (National Center for Advancing Translational Sciences (NCATS), 2010).
Where “and” joins values, the source holds several entries; their conditions need not be identical. Equal values may be shown once. Hit rate of the full screen: of about 350,000 compounds, about 990 (0.28%) were called active. Inconclusive means that the source gave no clear call. Such entries were picked first, then a sample of the others. Calls follow the shape of the dose curve; as a rule, active = well fitted inhibition curve with a large enough effect; inconclusive = small, poorly fitted or top-dose-only effect; inactive = no such curve, though single readings can be large or run the other way. A potency beside an inconclusive call is a rough fit, not a confirmed value. A structure can be active in one record and inactive in another.
% is scaled to controls: 0 for no effect and ±100 for the full control effect; potency is read from the fitted curve at half-maximal effect; tags tell the direction and shape of the fitted curve.
Also: nearly all actives have a fitted effect of over 40% in size.

The compounds below were run against Tyrosyl-DNA phosphodiesterase 1 (Homo sapiens) (UniProt Q9NUW8) (assay: qHTS Assay for Inhibitors of Tyrosyl-DNA Phosphodiesterase (TDP1)). Settings: recombinant TDP1, AlphaScreen DNA substrate cleavage; series mostly up to 130 µM.
Chain of UniProt Q9NUW8 (Q9NUW8 whole entry, looked up): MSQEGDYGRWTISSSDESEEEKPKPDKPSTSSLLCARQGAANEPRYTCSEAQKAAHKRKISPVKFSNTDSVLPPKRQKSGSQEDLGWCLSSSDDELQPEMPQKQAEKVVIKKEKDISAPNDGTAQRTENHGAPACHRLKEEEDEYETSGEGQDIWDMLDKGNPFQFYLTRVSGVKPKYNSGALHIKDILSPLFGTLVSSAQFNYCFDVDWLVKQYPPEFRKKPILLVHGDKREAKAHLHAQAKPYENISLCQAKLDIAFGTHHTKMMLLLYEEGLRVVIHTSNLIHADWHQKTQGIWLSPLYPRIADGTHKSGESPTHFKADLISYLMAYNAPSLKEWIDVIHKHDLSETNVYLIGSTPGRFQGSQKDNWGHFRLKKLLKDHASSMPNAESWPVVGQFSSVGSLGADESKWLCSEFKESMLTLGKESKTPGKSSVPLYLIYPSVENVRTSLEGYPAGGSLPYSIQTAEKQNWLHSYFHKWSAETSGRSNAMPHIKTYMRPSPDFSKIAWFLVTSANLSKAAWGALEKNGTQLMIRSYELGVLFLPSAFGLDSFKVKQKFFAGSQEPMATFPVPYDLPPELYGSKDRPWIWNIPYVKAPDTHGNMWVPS
Summary of the method: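 Recombinant E. coli-expressed Tdp1 (1 nM) preincubated with compound 15 min at RT, then 5'-biotin/3'-phosphotyrosine-FITC DNA substrate (15 nM) added for 5 min. AlphaScreen beads (10 ug/ml) added, 10 min RT; tyrosine-FITC cleavage read as signal loss.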
With CCOP(=S)(OCC)Oc1ccc(Cl)cc1Cl the Potency was inconclusive: 56.2 µM [inhibitor, single point]. O=C1NC(=O)N(Cc2ccco2)C(=O)/C1=C\c1ccc(-c2ccc(F)cc2)o1 was tested, and the Potency was inconclusive: 3.16 µM [inhibitor, full curve, poor fit]. In the case of COc1cc(OC)c(C=O)c(OC(=O)N(C)C)c1, the Potency is reported as “inactive”. Oc1ccc2c3c1O[C@H]1c4oc5ccccc5c4C[C@]4(O)[C@H](C2)N(CC2CC2)CC[C@@]314 was tested, and the Potency was “inactive”. With COc1ccc(S(=O)(=O)Nc2ccccc2OC)cc1N=Nc1c(O)[nH]c(=S)[nH]c1=O the Potency was inconclusive: 35.5 µM [inhibitor, partial curve]. In the case of COc1ccccc1Sc1ccccc1CC(C)N (stereo not drawn), the Potency is reported as “inactive”. In the case of NC1C=CC=C(C(=O)O)C1 (stereo not drawn), the Potency is reported as active: 3.98 µM. With CCCCC/C=C\C/C=C\C/C=C\C/C=C\CCCC(=O)NCc1ccoc1 the Potency was inconclusive: 70.8 µM [inhibitor, single point]. In the case of O=C1NC(=O)C(=Cc2ccc(SC3CCCCC3)o2)C(=O)N1, the Potency is reported as inconclusive: 15.8 µM [inhibitor, full curve]. COc1ccc(C(=O)N/N=C\c2coc3ccc(C)cc3c2=O)cc1 was tested, and the Potency was inconclusive: 50.1 µM [inhibitor, partial curve]. With CC(=O)[O][Hg][c]1ccccc1 the Potency was active: 1.41 µM and active: 31.6 µM. In the case of COC12C(COC(N)=O)C3=C(C(=O)C(C)=C(N)C3=O)N1CC1C2N1C (stereo not drawn), the Potency is reported as inconclusive: 63.1 µM [inhibitor, single point]. CC[C@@]1(O)C(=O)OCc2c1cc1n(c2=O)Cc2cc3c(O)cccc3nc2-1 was tested, and the Potency was inconclusive: 14.1 µM [inhibitor, partial curve] and inconclusive: 44.7 µM [inhibitor, single point]. With COC(=O)C1(C)C=C2C(=C(C)C(=O)C2C)CN1 (stereo not drawn) the Potency was inconclusive: 31.6 µM [inhibitor, single point]. For O=c1c2ccccc2nc(/C=C\c2ccccc2F)n1-c1ccc(O)cc1, the Potency was “inactive”. For O=c1c2ccccc2nc(/C=C/c2ccc(O)cc2)n1-c1cccc(O)c1, the Potency was inconclusive: 11.2 µM [inhibitor, full curve]. O=C1NC(=O)N(CC2CCCO2)C(=O)/C1=C/c1cccs1 (stereo not drawn) was tested, and the Potency was inconclusive: 35.5 µM [inhibitor, partial curve]. COc1cccc(C(=O)C2CCCN(Cc3cccc(C)n3)C2)c1 (stereo not drawn) was tested, and the Potency was “inactive”. For CCOP(=S)(OCC)SCn1c(=O)oc2cc(Cl)ccc21, the Potency was inconclusive: 28.2 µM [inhibitor, single point]. In the case of [Cl-].[Cl-].[Hg+2], the Potency is reported as active: 35.5 µM. With COCCCn1c(N)c(C(=O)NCCC(C)C)c2nc3ccccc3nc21 the Potency was inconclusive: 15.8 µM [inhibitor, single point]. O=C1NC(=O)N(c2ccc3c(c2)OCO3)C(=O)/C1=C\c1ccc(-c2ccccc2C(=O)O)o1 was tested, and the Potency was active: 11.2 µM. In the case of CCCCC/C=C\C/C=C\C/C=C\C/C=C\CCCC(=O)NCCCl, the Potency is reported as inconclusive: 25.1 µM [inhibitor, single point]. CN=C(SCc1cc2c(cc1Cl)OCO2)c1c(O)n(C)c(=O)n(C)c1=O was tested, and the Potency was inconclusive: 25.1 µM [inhibitor, full curve, poor fit]. With Cc1cc(/C=C2\C(=O)NC(=O)N(Cc3ccccc3Cl)C2=O)c(C)n1-c1ccc(C(=O)O)cc1 the Potency was active: 22.4 µM. COC(=O)C1=Nc2ccccc2/C1=C\c1c(O)n(-c2cc(OC)ccc2OC)c(=O)[nH]c1=O was tested, and the Potency was inconclusive: 28.2 µM [inhibitor, full curve]. In the case of Cc1ccc(C(=O)OCC(=O)NC2CCCCC2)o1, the Potency is reported as inconclusive: 56.2 µM [inhibitor, partial curve]. O=S(=O)(Oc1ccc(Cl)cc1)c1ccccc1 was tested, and the Potency was inconclusive: 50.1 µM [inhibitor, single point]. For COc1cc([C@@H]2c3cc4c(cc3C[C@H]3COC(=O)[C@@H]32)OCO4)cc(OC)c1O, the Potency was “inactive”. CN(C)CC1CSCCC1(O)c1cccc(Cl)c1 (stereo not drawn) was tested, and the Potency was inconclusive: 89.1 µM [inhibitor, partial curve]. With CCCCC/C=C\C/C=C\C/C=C\C/C=C\CCCCCC(=O)NCCO the Potency was active: 39.8 µM. In the case of CCC(=O)Nc1cc(C(=O)O)ccc1S(=O)(=O)c1ccc(C)cc1, the Potency is reported as active: 20 µM. For CC(c1ccccc1)n1cncc1C(=O)O (stereo not drawn), the Potency was active: 22.4 µM. For COC(=O)C1(O)CC2OC1(C)n1c3ccccc3c3c4c(c5c6ccccc6n2c5c31)C(=O)NC4 (stereo not drawn), the activity change, negative = inhibition was inactive: 7.14% [at 21 µM]. With CC(C)Oc1cccnc1N(C)C1CCN(Cc2ccccc2)CC1 the Potency was inconclusive: 0.0071 µM [inhibitor, full curve]. With O=C(O)c1cc(O)c(O)c(O)c1 the Potency was inconclusive: 1 µM [inhibitor, full curve, poor fit] and inconclusive: 2.51 µM [inhibitor, full curve]. In the case of [O]=[Sb]([OH])([OH])[c]1ccccc1, the Potency is reported as inconclusive: 44.7 µM [inhibitor, partial curve]. With CC(C)Nc1nc(Cl)nc(NC(C)C)n1 the Potency was active: 28.2 µM. In the case of CC1C(=O)OC2C(O)C34C5OC(=O)[C@@]3(OC3OC(=O)[C@H](O)[C@]34C(C(C)(C)C)C5O)[C@]12O (stereo partly drawn), the Potency is reported as “inactive”. CC1=NN(c2ccccc2)C(=O)/C1=C/c1c(O)[nH]c(=S)[nH]c1=O was tested, and the Potency was inconclusive: 15.8 µM [inhibitor, full curve]. For O=C(O)CCC(=O)NCCC1=c2ccccc2=N/C1=C\c1c(O)n(Cc2ccc(F)cc2)c(=S)[nH]c1=O, the Potency was active: 35.5 µM. With CC(C)OP(=O)(O)NC(=O)c1ccccc1 the Potency was inconclusive: 17.8 µM [inhibitor, partial curve]. CN1C2CCC1C(C(=O)O)C(O)C2 (stereo not drawn) was tested, and the Potency was inconclusive: 25.1 µM [inhibitor, full curve].
